Here are results for 48 molecules from PubChem BioAssay AID1159614 (National Center for Advancing Translational Sciences (NCATS), 2016).

Out of some 45,000 compounds screened, about 65 (0.1%) were called active. Calls follow the shape of the dose curve; as a rule, active = well fitted activation curve with a large enough effect; inconclusive = small, poorly fitted or top-dose-only effect; inactive = no such curve, though single readings can be large or run the other way. The list shows a part of the results.

Sequence of UniProt P54803 (P54803 whole entry, looked up): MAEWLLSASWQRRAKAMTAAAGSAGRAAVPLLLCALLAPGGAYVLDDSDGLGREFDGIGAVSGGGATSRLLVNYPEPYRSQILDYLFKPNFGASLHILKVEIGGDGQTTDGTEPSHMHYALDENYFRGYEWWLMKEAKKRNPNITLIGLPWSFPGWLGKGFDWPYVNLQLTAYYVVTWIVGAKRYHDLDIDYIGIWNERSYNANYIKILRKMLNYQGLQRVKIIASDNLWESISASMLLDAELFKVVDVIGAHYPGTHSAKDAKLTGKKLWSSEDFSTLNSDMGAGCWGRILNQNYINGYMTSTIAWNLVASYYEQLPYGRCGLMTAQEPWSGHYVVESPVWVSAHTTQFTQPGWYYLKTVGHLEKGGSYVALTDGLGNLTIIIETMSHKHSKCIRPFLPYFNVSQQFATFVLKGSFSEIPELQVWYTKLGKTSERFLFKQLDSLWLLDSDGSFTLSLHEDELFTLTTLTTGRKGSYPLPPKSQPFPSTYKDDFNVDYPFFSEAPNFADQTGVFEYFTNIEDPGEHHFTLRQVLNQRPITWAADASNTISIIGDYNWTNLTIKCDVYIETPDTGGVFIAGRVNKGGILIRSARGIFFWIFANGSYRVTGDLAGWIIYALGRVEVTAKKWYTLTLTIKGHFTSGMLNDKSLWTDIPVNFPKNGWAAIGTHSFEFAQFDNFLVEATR

This test deals with Galactocerebrosidase (Homo sapiens) (UniProt P54803). As to the kind of experiment: A Novel Cell-Based Assay to Identify Small Molecules for B -Galactocerebrosidase. Also: 0% is about no effect; nearly all actives have a fitted effect of over 65% in size. The note with it: 145M-Twi-hGALC-G270D cells (Twitcher mouse brain line with human GALC G270D), HMU-beta-Gal fluorescence, 48 h; series mostly up to 57.5 µM; activation: at the top concentration. The method, boiled down:
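Brain-derived Twitcher mouse 145M-Twi cells stably expressing human GALC-G270D or wild-type GALC, treated live, then residual GALC activity read by fluorescence of HMU-b-Gal substrate (0.1 mM final) in citrate-phosphate buffer pH 5.2 with sodium taurocholate. Signal increase indicates enhancement.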
Take `CCOC(=O)c1sc2ncn(CC(=O)Nc3ccc(C)cc3Br)c(=O)c2c1C`: the “activation” value was inactive: -1.93%.

`CCOc1cc(C(=O)N2CCc3c([nH]c4ccccc34)C2c2ccccc2)cc(OCC)c1OCC` (stereo not drawn): the “activation” value was inactive: -2.83%.

Turning to `N#Cc1c[nH]n2c(NC3CCCC3)c(-c3cccc(Cl)c3)nc12`, the “activation” value is inactive: 25.7%.

Regarding `Cc1ccc(N(CC(=O)Nc2ccc(C)c(F)c2)S(=O)(=O)c2c(C)n[nH]c2C)cc1`, the “activation” value is inactive: -14.7%.

Consider `COc1ccc(C)cc1NC(=O)Cn1c(=O)ccc2cc(S(=O)(=O)N3CCCC3)ccc21`, for which the “activation” value was inactive: -32.9%.

Regarding `COc1ccc(-c2noc(CSc3nnc(-c4ccncc4)n3-c3ccc(C)cc3)n2)cc1`, the “activation” value was inactive: -3.03%.

For `CCc1ccc(Sc2cc(C(=O)NC(C)CC)c3ccccc3n2)cc1` (stereo not drawn), the “activation” value was inactive: -14.4%.

Regarding `CCOc1ccc(OCC(=O)Nc2nnc3n2CCS3)cc1`, the “activation” value was inactive: -21.9%.

For the molecule `COc1cccc(NC(=O)c2cnn(-c3ccccc3)c2-n2cccc2)c1`, the “activation” value was inactive: 7.5%.

In the case of `CCOc1nc(NC(=O)NS(=O)(=O)Oc2ccccc2)nc(-c2ccccc2)n1`, the “activation” value is inactive: -11.3%.

Regarding `COc1cccc(CNC(=O)C2CCC(CNS(=O)(=O)c3ccc(Br)s3)CC2)c1` (stereo not drawn), the “activation” value was inactive: -15.4%.

`CCOC(=O)C(Cc1c[nH]c2ccccc12)NC(=O)COc1ccc(Cl)c(C)c1` (stereo not drawn): the “activation” value is inactive: -2.61%.

With `CCOc1ccc(Sc2cc(C(=O)NCCc3ccccc3)c3ccccc3n2)cc1`, the “activation” value is inactive: -6.29%.

`Cc1ccc(CNC(=O)c2ccc3c(=O)n(-c4ccccc4)c(=O)[nH]c3c2)cc1`: the “activation” value is inactive: -1.06%.

As to `COC(=O)c1sc2cccc(F)c2c1S(=O)(=O)N1CCN(c2ccc(F)cc2)CC1`, the “activation” value is inactive: 0.217%.

`Cc1nc2nc(SCC(=O)NCCc3ccc(Cl)cc3)nn2c(C)c1Cc1ccccc1`: the “activation” value is inactive: -5.96%.

As to `CCCSc1ncc(Cl)c(C(=O)Nc2nc3ccc(OCC)cc3s2)n1`, the “activation” value was inactive: -9.6%.

Turning to `COc1ccc2c(c1)CCc1c(C(=O)Nc3c(C)nn(Cc4ccc(Cl)c(Cl)c4)c3C)noc1-2`, the “activation” value is inactive: -14.5%.

For `Cc1ccc(S(=O)(=O)c2nc(-c3cccc(C)c3)oc2N2CCN(c3ccccc3)CC2)cc1`, the “activation” value was inactive: -1.97%.

For the molecule `COc1cc(OC)c(NC(=O)NCc2ccc3c(c2)CCN3C(=O)c2ccccc2)cc1Cl`, the “activation” value is inactive: -10.9%.

Regarding `S=c1nc[nH]c2nc[nH]c12`, the “activation” value was inactive: -11.8%.

Regarding `CCOC(=O)CC1c2cc(OCC)c(OCC)cc2CCN1C(=O)Nc1cccc(Cl)c1` (stereo not drawn), the “activation” value was inactive: -12.2%.

With `CCc1ccccc1NC(=O)CSc1nc(-c2ccccc2OC)nc2c1Cc1c(CO)cnc(C)c1O2`, the “activation” value is inactive: -11.9%.

As for `Cc1ccc2c(c1)cc1c(=O)n(CC(=O)NC3CCCCC3)nc(C)n12`, the “activation” value was inactive: -14.8%.

As to `COC(=O)C(CCSC)NC(=O)c1cc2c(n(-c3ccc(C)cc3)c1=O)CC(C)(C)CC2=O` (stereo not drawn), the “activation” value was inactive: 4.58%.

On to `CC(=O)c1cc(C(=O)Nc2cc(C)cc(C)c2)c2ccccn12`, for which the “activation” value is inactive: -3.88%.

As for `CCCCC(CC)CNC(=O)C1CCC(CNS(=O)(=O)c2cccc3nsnc23)CC1` (stereo not drawn), the “activation” value was inactive: -16.4%.

Take `Cc1cc(C)cc(OCCCn2c(CCNC(=O)C3CCCCC3)nc3ccccc32)c1`: the “activation” value is inactive: -16.9%.

Consider `CCC(=O)N1c2ccc(S(=O)(=O)N3CCC(C)CC3)cc2CC1C` (stereo not drawn), for which the “activation” value is inactive: 0.13%.

For the molecule `COc1ccc(CCNC(=O)CCCn2c(=O)c3ccccc3n(Cc3c(C)cc(C)cc3C)c2=O)cc1OC`, the “activation” value is inactive: 10.4%.

Consider `CCC(=O)Nc1ccc(-c2nnc3c4ccccc4c(C)nn23)cc1`, for which the “activation” value was inactive: -19.9%.

As to `O=C(NCc1ccccc1)c1ccc2c(c1)CCN2S(=O)(=O)c1ccccc1`, the “activation” value is inactive: -22.3%.

With `NC(=O)C1(N2CCCCC2)CCN(CCCC(=O)c2ccc(F)cc2)CC1`, the “activation” value was inactive: -15.3%.

With `CNC1(C)C2CCC(C2)C1(C)C` (stereo not drawn), the “activation” value was inactive: -7.87%.

Consider `CNC(=O)c1ccc(Nc2nnc(-c3ccc(C)c(S(=O)(=O)N(C)C)c3)c3ccccc23)cc1`, for which the “activation” value is inactive: -3.29%.

With `CCOC(=O)c1[nH]c(C)c(CCC(=O)NCc2ccccc2Cl)c1C`, the “activation” value is inactive: -9.72%.

`CCCc1ccc(S(=O)(=O)N2CCC(Oc3ccc(-n4cnnn4)cc3)CC2)cc1`: the “activation” value was inactive: -9.37%.

Turning to `Cc1ccc(NC(=O)CSc2nc(=O)n(CCCN(C)C)c3c2CCC3)cc1F`, the “activation” value was inactive: -4.64%.

On to `CC1CCN(S(=O)(=O)c2ccc(C(=O)Nc3sc4c(c3C(N)=O)CC(C)(C)NC4(C)C)cc2)CC1`, for which the “activation” value is inactive: 0.26%.

Take `COc1cc(NC(=O)CSc2nc(-c3ccc(C)cc3)nc3c2Cc2ccccc2O3)cc(OC)c1`: the “activation” value was inactive: -1.56%.

Regarding `N#Cc1ccc(CSc2nc3c(c(=O)[nH]2)CCC3)cc1`, the “activation” value was inactive: -17.7%.

As to `Cc1cccc(C)c1-n1ncc(C(=O)N2CCN(c3ccccn3)CC2)c1C1CCN(C(=O)OC(C)(C)C)CC1`, the “activation” value was inactive: -11%.

Take `O=C(CC1C(=O)OCCN1Cc1ccccc1)Nc1ccc(F)cc1` (stereo not drawn): the “activation” value was inactive: -1.53%.

On to `Cc1ccc(C)c(NC(=O)Cn2cc(C(=O)c3ccc(Cl)cc3)c(=O)c3ccc(C)nc32)c1`, for which the “activation” value is inactive: -9.95%.

With `CC(=O)c1ccc(NC(=O)CSc2cn(CC(=O)N3CCCCCC3)c3ccccc23)cc1`, the “activation” value is inactive: -28.4%.

`Cc1cccc(-c2nc3c4ccccc4nc(NCc4ccc(Cl)cc4)n3n2)c1`: the “activation” value is inactive: 25.9%.

`CC(C)Cn1c(=O)c2sccc2n2c(CCCC(=O)NCc3ccccc3Cl)nnc12`: the “activation” value is inactive: -12.3%.

Regarding `COc1ccc(NC(=O)CSc2oc(-c3ccco3)nc2S(=O)(=O)c2ccc(Br)cc2)c(OC)c1`, the “activation” value is inactive: -25.6%.
